The text below walks through data of publication PMC5302899.

Sequences of proteins named here, by UniProt entry; tags and fusion partners are left off.
UniProt P23771: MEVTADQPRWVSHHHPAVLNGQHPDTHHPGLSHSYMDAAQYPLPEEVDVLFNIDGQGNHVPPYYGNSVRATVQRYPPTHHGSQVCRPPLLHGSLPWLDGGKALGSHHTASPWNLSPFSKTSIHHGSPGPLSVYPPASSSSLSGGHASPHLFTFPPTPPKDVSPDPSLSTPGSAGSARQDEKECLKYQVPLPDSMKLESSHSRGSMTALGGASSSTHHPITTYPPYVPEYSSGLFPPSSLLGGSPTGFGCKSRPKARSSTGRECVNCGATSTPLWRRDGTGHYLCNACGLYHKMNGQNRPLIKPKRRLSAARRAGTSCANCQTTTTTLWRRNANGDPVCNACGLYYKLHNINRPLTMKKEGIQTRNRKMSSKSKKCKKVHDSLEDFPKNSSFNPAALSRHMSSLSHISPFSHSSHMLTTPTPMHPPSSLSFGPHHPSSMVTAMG
UniProt P03146: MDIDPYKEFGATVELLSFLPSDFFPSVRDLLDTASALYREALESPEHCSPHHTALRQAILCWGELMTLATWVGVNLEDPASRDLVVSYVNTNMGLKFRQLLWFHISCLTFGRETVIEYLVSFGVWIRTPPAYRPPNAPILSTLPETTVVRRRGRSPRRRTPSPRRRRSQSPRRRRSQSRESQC
UniProt P03165: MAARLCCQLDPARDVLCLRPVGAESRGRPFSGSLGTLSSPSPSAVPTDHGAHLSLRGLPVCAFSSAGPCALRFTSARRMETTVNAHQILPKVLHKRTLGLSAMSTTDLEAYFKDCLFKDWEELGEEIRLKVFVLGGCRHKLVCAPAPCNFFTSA
UniProt P23769: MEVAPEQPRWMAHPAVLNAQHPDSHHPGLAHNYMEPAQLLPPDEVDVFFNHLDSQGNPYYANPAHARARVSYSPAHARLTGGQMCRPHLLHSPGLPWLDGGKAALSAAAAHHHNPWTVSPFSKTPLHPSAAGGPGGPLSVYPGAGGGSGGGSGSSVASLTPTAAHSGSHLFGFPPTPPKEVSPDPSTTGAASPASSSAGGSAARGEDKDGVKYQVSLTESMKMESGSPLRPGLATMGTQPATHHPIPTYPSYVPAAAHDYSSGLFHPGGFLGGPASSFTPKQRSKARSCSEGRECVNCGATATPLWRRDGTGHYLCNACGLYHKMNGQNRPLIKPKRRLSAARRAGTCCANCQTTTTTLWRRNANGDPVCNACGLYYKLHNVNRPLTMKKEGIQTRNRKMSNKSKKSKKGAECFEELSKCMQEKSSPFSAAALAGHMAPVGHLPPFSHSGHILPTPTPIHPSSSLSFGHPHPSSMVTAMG

Results are given in words; binding and its absence hold for the method and conditions named. Binding seen in cells or lysates may run through a third protein. Some binding calls cover weakened binding; strength is not graded here.

Holding throughout (assay): co-IP; HepG2.2.15 cell lysates (25 mM Tris, 150 mM NaCl, 1 mM EDTA, 1 mM EGTA, 20 mM sodium molybdate, 0.5% Nonidet P-40), antibody on protein A beads, 4°C overnight; Western blot of the precipitates
The target of assay [1] is GATA-3 (human (endogenous in HepG2.2.15)) (UniProt P23771).
The target in assay [2] is HBV core protein (hepatitis B virus, serotype ayw (in HepG2.2.15 cells)) (UniProt P03146).
Assay [3] has as its target HBx protein (hepatitis B virus, serotype ayw (in HepG2.2.15 cells)) (UniProt P03165).
In assay [4] the target is GATA-2 (human (endogenous in HepG2.2.15)) (UniProt P23769).

With GATA-2 (from UniProt P23769 1-480), the values for the binding result in assay [1], in assay [2] and in assay [3] were “binds”, “no binding” and “binds”, respectively.

For GATA-3 (from UniProt P23771 1-443), the binding result is given as “binds” in assay [4], “no binding” in assay [2] and “binds” in assay [3].

Take HBx protein (from UniProt P03165 1-154): the binding entry in assay [4] and in assay [1] was “binds” each time.
